# Laboratory results as given in the supplement of paper PMC8728848.
# Some of the results follow.
# B1: P-Selectin (Mus musculus), Q01102 (protein)
# chain: MAGCPKGSWTPRLRSVILGGAQLIWFSALISELVNQKEVAAWTYNYSTKAYSWNNSRVFCRRHFTDLVAIQNKNEIAHLNDVIPFFNSYYWIGIRKINNKWTWVGTNKTLTEEAENWADNEPNNKKNNQDCVEIYIKSNSAPGKWNDEPCFKRKRALCYTASCQDMSCSNQGECIETIGSYTCSCYPGFYGPECEYVKECGKVNIPQHVLMNCSHPLGEFSFNSQCTFSCAEGYELDGPGELQCLASGIWTNNPPKCDAVQCQSLEAPPHGTMACMHPIAAFAYDSSCKFECQPGYRARGSNTLHCTGSGQWSEPLPTCEAIACEPPEIPIHGSMDCVPSTGTFGYNSSCTFLCAEGFVLKGNDAIQCADSGQWTAPAPFCEALQCPEFPVPSKAQVNCSDPFGTLTYQSVCSFSCDEGSLLVGASVIRCLATGHWNGAPPECQAVSCAPMLSPENGSMTCVQPLGNSTYKSTCQFMCDEGFYLSGPERLDCSPSGHWTGTPPTCEAIKCPGIFAPEQGNLDCSHVHGEFGVGSICHFSCNEDFELLGSENVECTVSGRWSAPPPTCKGITSLPAPAVRCPALTTPGQGTMSCQHHLGSFGPNTTCYFGCKTGFTLRGANSLRCRASGQWTAVTPMCRAVKCSELHMDTAVAMNCSNPWGNFSYGSTCTFQCPEGQSLNGSVRATCREDGHWSDAMPTCQAGTLTIQEALTYLGGAVASTTGLAVGGTLLALLRKRLRKKDDGKCPLNPHSHLGTYGVFTNAAYDPTP
# How the values were obtained:
# Assay in all cases: glycan array binding signal (z-score within array); higher = stronger binding
# Details in all cases: glycan notation: IUPAC condensed, linker removed
# Gal(a1-6)Glc = target: Gal(a1-6)Glc
# Summary of the method: (§1)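 Columns mapping to the same glycan were averaged after glycan names were converted to IUPAC-condensed notation. The data come from 3228 arrays in the Consortium for Functional Glycomics database, limited to those with an available protein sequence. Binding is reported as a within-array Z-score averaged across arrays of one protein sequence and across linkers.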
# Gal(b1-2)Gal = target: Gal(b1-2)Gal
# Summary of the method: as §1
# Gal(b1-3)Gal = target: Gal(b1-3)Gal
# Summary of the method: as §1
# Gal(b1-3)Gal(b1-4)GlcNAc = target: Gal(b1-3)Gal(b1-4)GlcNAc
# Summary of the method: as §1
# Gal(b1-3)GalNAc = target: Gal(b1-3)GalNAc
# Summary of the method: as §1
# [1] = target: Gal(b1-3)GalNAc(b1-3)Gal(a1-4)Gal(b1-4)Glc
# Summary of the method: as §1
# [2] = target: Gal(b1-3)GalNAc(b1-4)Gal(b1-4)Glc
# Summary of the method: as §1
# [3] = target: Gal(b1-3)GalNAc(b1-4)[Neu5Ac(a2-3)]Gal(b1-4)Glc
# Summary of the method: as §1
# Gal(b1-3)GlcNAc = target: Gal(b1-3)GlcNAc
# Summary of the method: as §1
# [4] = target: Gal(b1-3)GlcNAc(b1-2)Man(a1-3)[Gal(b1-3)GlcNAc(b1-2)Man(a1-6)]Man(b1-4)GlcNAc(b1-4)GlcNAc
# Summary of the method: as §1
# [5] = target: Gal(b1-3)GlcNAc(b1-3)Gal(b1-3)GlcNAc
# Summary of the method: as §1
# [6] = target: Gal(b1-3)GlcNAc(b1-3)Gal(b1-4)Glc
# Summary of the method: as §1
# [7] = target: Gal(b1-3)GlcNAc(b1-3)Gal(b1-4)GlcNAc
# Summary of the method: as §1
# [8] = target: Gal(b1-3)[Fuc(a1-4)]GlcNAc
# Summary of the method: as §1
# [9] = target: Gal(b1-3)[Fuc(a1-4)]GlcNAc(b1-3)Gal(b1-3)[Fuc(a1-4)]GlcNAc
# Summary of the method: as §1
# [10] = target: Gal(b1-3)[Fuc(a1-4)]GlcNAc(b1-3)Gal(b1-4)GlcNAc
# Summary of the method: as §1
# [11] = target: Gal(b1-3)[Fuc(a1-4)]GlcNAc(b1-3)Gal(b1-4)[Fuc(a1-3)]GlcNAc
# Summary of the method: as §1
# [12] = target: Gal(b1-3)[GlcNAc(b1-6)]GalNAc
# Summary of the method: as §1
# [13] = target: Gal(b1-3)[Neu5Ac(a2-6)]GalNAc
# Summary of the method: as §1
# [14] = target: Gal(b1-3)[Neu5Ac(a2-6)]GlcNAc(b1-6)Gal(b1-4)Glc
# Summary of the method: as §1
# [15] = target: Gal(b1-3)[Neu5Ac(b2-6)]GalNAc
# Summary of the method: as §1
# [16] = target: Gal(b1-4)GalNAc(a1-3)[Fuc(a1-2)]Gal(b1-4)GlcNAc
# Summary of the method: as §1
# [17] = target: Gal(b1-4)GalNAc(b1-3)[Fuc(a1-2)]Gal(b1-4)GlcNAc
# Summary of the method: as §1
# Gal(b1-4)Glc = target: Gal(b1-4)Glc
# Summary of the method: as §1
# Gal(b1-4)Glc6S = target: Gal(b1-4)Glc6S
# Summary of the method: as §1
# Gal(b1-4)GlcNAc = target: Gal(b1-4)GlcNAc
# Summary of the method: as §1
# [18] = target: Gal(b1-4)GlcNAc(a1-6)Gal(b1-4)GlcNAc
# Summary of the method: as §1
# [19] = target: Gal(b1-4)GlcNAc(b1-2)Man(a1-3)[Gal(b1-4)GlcNAc(b1-2)Man(a1-6)]Man(b1-4)GlcNAc(b1-4)GlcNAc
# Summary of the method: as §1
# [20] = target: Gal(b1-4)GlcNAc(b1-3)Gal(b1-3)GlcNAc
# Summary of the method: as §1
# [21] = target: Gal(b1-4)GlcNAc(b1-3)Gal(b1-4)Glc
# Summary of the method: as §1
# [22] = target: Gal(b1-4)GlcNAc(b1-3)Gal(b1-4)GlcNAc
# Summary of the method: as §1
# [23] = target: Gal(b1-4)GlcNAc(b1-3)Gal(b1-4)GlcNAc(b1-3)Gal(b1-4)GlcNAc
# Summary of the method: as §1
# [24] = target: Gal(b1-4)GlcNAc(b1-3)Gal(b1-4)[Fuc(a1-3)]GlcNAc(b1-3)Gal(b1-4)[Fuc(a1-3)]GlcNAc
# Summary of the method: as §1
# [25] = target: Gal(b1-4)GlcNAc(b1-3)GalNAc
# Summary of the method: as §1
# [26] = target: Gal(b1-4)GlcNAc(b1-3)[Gal(b1-4)GlcNAc(b1-6)]Gal(b1-4)GlcNAc
# Summary of the method: as §1
# [27] = target: Gal(b1-4)GlcNAc(b1-3)[Gal(b1-4)GlcNAc(b1-6)]GalNAc
# Summary of the method: as §1
# [28] = target: Gal(b1-4)GlcNAc(b1-3)[GlcNAc(b1-6)]Gal(b1-4)GlcNAc
# Summary of the method: as §1
# [29] = target: Gal(b1-4)GlcNAc(b1-6)Gal(b1-4)GlcNAc
# Summary of the method: as §1
# [30] = target: Gal(b1-4)GlcNAc(b1-6)Gal(b1-4)GlcNAc(b1-6)GalNAc
# Summary of the method: as §1
# [31] = target: Gal(b1-4)GlcNAc(b1-6)GalNAc
# Summary of the method: as §1
# [32] = target: Gal(b1-4)GlcNAc(b1-6)[Gal(b1-3)]GalNAc
# Summary of the method: as §1
# Gal3S(b1-3)GalNAc = target: Gal3S(b1-3)GalNAc
# Summary of the method: as §1
# Gal3S(b1-3)GlcNAc = target: Gal3S(b1-3)GlcNAc
# Summary of the method: as §1
# [33] = target: Gal3S(b1-3)[Fuc(a1-4)]GlcNAc
# Summary of the method: as §1
# Gal3S(b1-4)Glc = target: Gal3S(b1-4)Glc
# Summary of the method: as §1
# Gal3S(b1-4)Glc6S = target: Gal3S(b1-4)Glc6S
# Summary of the method: as §1
# Gal3S(b1-4)GlcNAc = target: Gal3S(b1-4)GlcNAc
# Summary of the method: as §1
# Gal3S(b1-4)GlcNAc6S = target: Gal3S(b1-4)GlcNAc6S
# Summary of the method: as §1
# [34] = target: Gal3S(b1-4)[Fuc(a1-3)]Glc
# Summary of the method: as §1
# Gal3S4S(b1-4)GlcNAc = target: Gal3S4S(b1-4)GlcNAc
# Summary of the method: as §1
# Gal3S6S(b1-4)GlcNAc = target: Gal3S6S(b1-4)GlcNAc
# Summary of the method: as §1
# Gal3S6S(b1-4)GlcNAc6S = target: Gal3S6S(b1-4)GlcNAc6S
# Summary of the method: as §1
# Gal4S(b1-4)GlcNAc = target: Gal4S(b1-4)GlcNAc
# Summary of the method: as §1
# Gal4S6S(b1-4)GlcNAc = target: Gal4S6S(b1-4)GlcNAc
# Summary of the method: as §1
# Gal6S(b1-4)Glc = target: Gal6S(b1-4)Glc
# Summary of the method: as §1
# Gal6S(b1-4)Glc6S = target: Gal6S(b1-4)Glc6S
# Summary of the method: as §1
# Gal6S(b1-4)GlcNAc = target: Gal6S(b1-4)GlcNAc
# Summary of the method: as §1
# Gal6S(b1-4)GlcNAc6S = target: Gal6S(b1-4)GlcNAc6S
# Summary of the method: as §1
# GalNAc(a1-3)Gal = target: GalNAc(a1-3)Gal
# Summary of the method: as §1
# GalNAc(a1-3)GalNAc = target: GalNAc(a1-3)GalNAc
# Summary of the method: as §1
binder,measurement,setting,value
B1,glycan array binding signal (z-score),Gal(a1-6)Glc,0.034
same,glycan array binding signal (z-score),Gal(b1-2)Gal,-0.572
same,glycan array binding signal (z-score),Gal(b1-3)Gal,-0.618
same,glycan array binding signal (z-score),Gal(b1-3)Gal(b1-4)GlcNAc,-0.405
same,glycan array binding signal (z-score),Gal(b1-3)GalNAc,-0.399
same,glycan array binding signal (z-score),[1],-0.475
same,glycan array binding signal (z-score),[2],-0.55
same,glycan array binding signal (z-score),[3],-0.302
same,glycan array binding signal (z-score),Gal(b1-3)GlcNAc,-0.591
same,glycan array binding signal (z-score),[4],-0.407
same,glycan array binding signal (z-score),[5],-0.386
same,glycan array binding signal (z-score),[6],-0.261
same,glycan array binding signal (z-score),[7],-0.593
same,glycan array binding signal (z-score),[8],0.104
same,glycan array binding signal (z-score),[9],0.199
same,glycan array binding signal (z-score),[10],0.517
same,glycan array binding signal (z-score),[11],0.285
same,glycan array binding signal (z-score),[12],-0.4
same,glycan array binding signal (z-score),[13],-0.302
same,glycan array binding signal (z-score),[14],-0.325
same,glycan array binding signal (z-score),[15],-0.378
same,glycan array binding signal (z-score),[16],-0.356
same,glycan array binding signal (z-score),[17],-0.454
same,glycan array binding signal (z-score),Gal(b1-4)Glc,-0.42
same,glycan array binding signal (z-score),Gal(b1-4)Glc6S,0.101
same,glycan array binding signal (z-score),Gal(b1-4)GlcNAc,-0.661
same,glycan array binding signal (z-score),[18],-0.328
same,glycan array binding signal (z-score),[19],-0.453
same,glycan array binding signal (z-score),[20],-0.277
same,glycan array binding signal (z-score),[21],-0.318
same,glycan array binding signal (z-score),[22],-0.29
same,glycan array binding signal (z-score),[23],-0.525
same,glycan array binding signal (z-score),[24],0.718
same,glycan array binding signal (z-score),[25],-0.56
same,glycan array binding signal (z-score),[26],-0.375
same,glycan array binding signal (z-score),[27],-0.495
same,glycan array binding signal (z-score),[28],-0.268
same,glycan array binding signal (z-score),[29],-0.251
same,glycan array binding signal (z-score),[30],-0.265
same,glycan array binding signal (z-score),[31],-0.609
same,glycan array binding signal (z-score),[32],-0.474
same,glycan array binding signal (z-score),Gal3S(b1-3)GalNAc,-0.32
same,glycan array binding signal (z-score),Gal3S(b1-3)GlcNAc,-0.121
same,glycan array binding signal (z-score),[33],3.6
same,glycan array binding signal (z-score),Gal3S(b1-4)Glc,-0.174
same,glycan array binding signal (z-score),Gal3S(b1-4)Glc6S,1.76
same,glycan array binding signal (z-score),Gal3S(b1-4)GlcNAc,-0.284
same,glycan array binding signal (z-score),Gal3S(b1-4)GlcNAc6S,1.04
same,glycan array binding signal (z-score),[34],4.89
same,glycan array binding signal (z-score),Gal3S4S(b1-4)GlcNAc,-0.069
same,glycan array binding signal (z-score),Gal3S6S(b1-4)GlcNAc,1.4
same,glycan array binding signal (z-score),Gal3S6S(b1-4)GlcNAc6S,2.53
same,glycan array binding signal (z-score),Gal4S(b1-4)GlcNAc,-0.332
same,glycan array binding signal (z-score),Gal4S6S(b1-4)GlcNAc,1.47
same,glycan array binding signal (z-score),Gal6S(b1-4)Glc,-0.169
same,glycan array binding signal (z-score),Gal6S(b1-4)Glc6S,1.68
same,glycan array binding signal (z-score),Gal6S(b1-4)GlcNAc,-0.055
same,glycan array binding signal (z-score),Gal6S(b1-4)GlcNAc6S,0.426
same,glycan array binding signal (z-score),GalNAc(a1-3)Gal,-0.702
same,glycan array binding signal (z-score),GalNAc(a1-3)GalNAc,-0.612
